Measurements taken from US7659273B2, “Composition for accelerating bone fracture healing” (Mitsubishi Tanabe Pharma Corporation, priority 2001, dated 2010).
At least one read-out could not be matched to a standard name with certainty.

Tested on: rabbit costicartilage cells
Experiment: Cartilage matrix (proteoglycan) production, Alcian blue staining (Experimental Examples 3 and 4)
Assay type: cell-based
Conditions: vehicle = 100%
Excerpt: Costicartilages were isolated from NZ line rabbit (Kitayama Labes., Co Ltd.; male; 4-week-old) and soaked into Hank's balanced salt solution (calcium- and magnesium-free; LifeTech Co., Ltd.; hereinafter, referred to as “HBSS”). One costicartilage and one costa were excised together, the adipose tissue and the muscle tissue were removed and then, the proliferating chondrocyte layer of costicartilage was excised. The collected proliferating chondrocyte layer was cut into sections with a surgical knife (FEATHER Safety Razor Co., Ltd.) and the all proliferating chondrocyte layer sections from 4 rabbits were combined in a centrifuge tube. To the centrifuge tube was added 40 ml of HBSS (pH 7.2) supplied with 0.1% tetrasodium ethylenediamine tetraacetate to obtain suspension of the proliferating chondrocyte layer sections, which was shaken at 37° C. for 20 minutes and centrifuged (1500 rpm, 10 minutes). The supernatant was aspirated off, and 40 ml of HBSS (pH 7.2) supplied with 0.2% trypsin was added to the tube to suspend the precipitates and shaken at 37° C. for 1 hour. The tube was centrifuged (1500 rpm, 10 minutes), and the supernatant was aspirated off. The precipitates were washed twice with HBSS, suspended in 100 ml of HBSS supplied with 0.1% collagenase (Wako Pure Chemical Industries, Ltd., 034-10533) and shaken at 37° C. for 3 hours. The content of the tube was passed through the Cell Strainer (pore size 40 μm) and the filtrate was divided into four centrifuge tubes. To each of all four tubes was added 40 ml of medium (α-MEM, LifeTech Co., Ltd.), and the tubes were centrifuged (1500 rpm, 10 minutes). The supernatant was aspirated off, and the resultant precipitates were collected in one tube with Pipetman. After addition of 40 ml of the same medium, the tube was re-centrifuged (1500 rpm, 10 minutes). Washing procedure comprising addition of medium followed by centrifugation was repeated additional three times. The precipitates were suspended in the same medium to give an about 5 ml suspension, and the cell number was counted.
The suspension of costicartilage cell described above was added to 24-well plate at 50,000 cells per well (day 1). Next day, medium was replaced with the same medium. After the medium replacement at day 5, the medium in the well for test sample was replaced with a medium (including 0.1% dimethylsulfoxide as a vehicle) containing a test compound indicated in Table 10 below. […] At that time, ascorbate-phosphate ester was added to the medium at 2 mM of final concentration. In the case of Alcian blue staining, medium was changed at 5, 7, 9, 12 and 14 days, and the Alcian blue staining was carried out at day 16 from the initiation of cultivation.
After removing the medium, cells in each well were fixed by addition of 1 ml of neutral buffer containing 4% paraformaldehyde and incubation for 30 minutes at room temperature. Cells were then washed twice with 1 ml of phosphate buffer (pH 7.2), and to each well was added 1 ml of pre-filtered 0.1 M HCl containing 0.1% Alcian blue BGX (Sigma; A3157), which stains cartilage matrix proteoglycan selectively. Alcian blue was dissolved by adding 0.5 ml of aqueous 6 M guanidine hydrochloride solution to each well. Absorbance at 620 nm was measured, and cartilage matrix amount (proteoglycan production amount) in each well was estimated, and proteoglycan production rate (%) of each test compound for vehicle (100%) was calculated.
The cartilage matrix (proteoglycan) production was determined using other compounds (compounds (52)-(55) and Compound (2) for comparison) in exactly the same manner as Experimental Example 3 above.

[1] = Experimental Example 4, concentration 1 × 10^−5 M
[2] = Experimental Example 4, concentration 1 × 10^−6 M
[3] = Experimental Example 3, concentration 1 × 10^−5 M, Alcian blue at day 16
[4] = Experimental Example 3, concentration 1 × 10^−6 M, Alcian blue at day 16
[5] = Experimental Example 4, concentration 1 × 10^−7 M
[6] = Experimental Example 3, concentration 1 × 10^−4 M, Alcian blue at day 16

SMILES	Proteoglycan Production (%) [1]	Proteoglycan Production (%) [2]	Proteoglycan Production (%) [3]	Proteoglycan Production (%) [4]	Proteoglycan Production (%) [5]	Proteoglycan Production (%) [6]
COc1cc2c(cc1OC)C(c1ccnc(-n3ncc4c(-c5cncnc5)cccc4c3=O)c1)=N[C@H](CO)C2 [Compound (54)]	396%	171%	–	–	–	–
COc1ccc([C@]2(C#N)CC[C@H](C(=O)O)CC2)cc1OC1CCCC1 [Compound (27)]	–	–	157%	151%	–	–
CCOc1cc2cc(CO)nc(-c3ccnc(-n4nc(-c5cc(OC)c(OC)c(OC)c5)c5sccc5c4=O)c3)c2cc1OCC [Compound (55)]	188%	171%	–	–	–	–
COc1cc2cc(CO)nc(-c3ccnc(-n4nc(-c5nccs5)c5ccccc5c4=O)c3)c2cc1OC [Compound (53)]	–	729%	–	–	–	–
COc1ccc(/C(C)=N/OC(N)=O)cc1OC1CCCC1 [Compound (9)]	–	–	149%	132%	–	–
CCOc1cc2cc(CO)c(CO)c(-c3ccnc(-n4nc(-c5cccnc5)c5ccccc5c4=O)c3)c2cc1OCC [Compound (2)]	686%	183%	906%	204%	128%	–
COc1cc2c(cc1OC)C(c1ccnc(-n3ccc4c(OCCN5CCOCC5)cccc4c3=O)c1)=N[C@H](CO)C2 [Compound (52)]	820%	774%	–	–	213%	–
COc1ccc(C2CNC(=O)C2)cc1OC1CCCC1 (stereo not drawn) [Compound (44)]	–	–	185%	–	–	263%
CCOc1cc2cc(CO)c(CO)c(-c3ccn(CCOC)c(=O)c3)c2cc1OCC [Compound (1)]	–	–	–	–	–	524%
COc1ccc(C(=O)Nc2c(Cl)cncc2Cl)cc1OC1CCCC1 [Compound (11)]	–	–	149%	161%	–	–
COc1ccc([C@H](Cc2ccncc2)c2ccccc2)cc1OC1CCCC1 [Compound (21)]	–	–	339%	156%	–	–
